A short description of data set [1]: kidney and liver histology and cleaved Caspase 3 IHC. Conditions: 10 mg/kg weekly I. P. for 35 days. The data set is classed as in vivo.
The next data set relates to MCW-SL3cis cells. As to the kind of experiment: spheroid growth and viability (MTT) with cisplatin and/or antibody. The format is cell-based, human. The procedure:
(A) A2780 apoptotic killing (casp 3/7 live imaging) after 36 hour mAb treatment (scFv clones 102-4a left, 102-5a right) and 24-hour carboplatin treatment. (B) Dose-response to up to 20 μM carboplatin in resistant A2780 cells treated with either control IgG1 or 102-5, relative to 0 carboplatin controls. (C) Kinetic killing assay (live imaging) in A2780 with human anti-CLP™1L scFv and/or 10 μM carboplatin treatment. *p<0.05, **p<0.005, ***p<0.0005. (D) Western blotting and densitometry for Akt and phospho-Akt (T308) in A2780 andA2780cis. (E) Cisplatin viability (MTT) inhibition curves for SL3 sensitive (parental) and resistant (SL3cis) tumor spheroids, pAkt (T308) and total Akt western blots on SL3 and SL3cis spheroid lysates (inset). (F) Viability (MTT) of SL3cis spheroids after 16 days of growth, treated with cisplatin and/or 102-5 anti-CLPTM1L at the indicated concentrations beginning at 4 days post-seeding. *p<0.05, **p<0.005. (G) Photomicrographs of SL3cis spheroids after 16 days of growth, treated with cisplatin and/or 102-5 anti-CLPTM1L. (H) Western blotting of SL3cis spheroid lysates for caspase cleavage and Akt phosphorylation after 16 days of growth, treated with cisplatin and/or 102-5 anti-CLPTM1L. (I) Western blotting of SL3cis monolayer cultures for phospho- and total Akt following treatment with control (PSB) or 102-5 anti-CLPTM1L at the indicated concentrations.
ID8 mouse epithelial ovarian cancer cells, A2780, Ovcar4, Panc1, and A549 human tumor cells were obtained from ATCC and authenticated within 6 months of experiments (RRIDs: CVCL_UI14, CVCL_0134, CVCL_0480, CVCL_1627, and CVCL_0023, respectively). Panc1, A2780, Ovcar4 and A549 were cultured in RPMI1640 plus 10% fetal bovine serum (FBS) (ThermoFisher, Waltham, MA). ID8 cells expressing luciferase were obtained from the Katherine Roby Laboratory at the University of Kansas and were authenticated within 6 months of experiments (RRID: CVCL_IU15). ID8 were cultured in DMEM with 4% FBS and 5 mg/ml Insulin transferrin selenium. […]
Combination indices were calculated by: […]

Data set [2] has as its system Human ovarian tumor cells. As to the kind of experiment: chemoresistance conferred by conditioned supernatants. The data set is classed as cell-based. Conditions: supernatants pre-treated with 100 nM 102-5 overnight; 40 μM carboplatin. The text has this:
(A) Flow cytometry histograms of fluorescent labeling of live A549 cells with 102-5 anti-CLPTM1L primary and Alexafluor-488-conjugated secondary antibodies. (B) Relative viability (MTS) of A549 cells (vector control, or with CLPTM1L shRNA knockdown (shCLPTM1L) after exposure to cisplatin and culture supernatants from either vector control or CLPTM1L shRNA cells that were untreated or pre-treated with cisplatin (x axis). **p=0.003, ***p=0.0001. (C) Relative killing (live imaging cytotoxicity) of Panc1 pancreatic tumor cells after 24-hour treatment with 100 nM gemcitabine and 72-hour culture supernatants that were either untreated or pre-treated with 20 nM gemcitabine. (D) Relative killing by 40 μM carboplatin (live imaging cytotoxicity) of ovarian tumor cells treated with supernatants from control or 10 μM carboplatin-conditioned A2780 donor cells at 60 hours post-carboplatin treatment. Supernatants in the 102-5 groups were pre-treated with 100 nM 102-5 anti-CLPTM1L overnight. *p<0.05, **p<0.005.
Fresh media was placed on 10 cm tissue culture dishes of sub-confluent tumor cells (donor cells), which were then treated as described, carboplatin pre-treatment supernatants after 48 hours of treatment and gemcitabine pre-treatment supernatants after 72 hours of treatment. […]

One molecule from patent US12129305B2, “Targeting CLPTM1L for treatment and prevention of cancer” (The Medical College of Wisconsin, Inc., priority 2018, dated 2024) can be followed below.

B1: 102-5: Human anti-CRR9/CLPTM1L IgG1; heavy chain V SEQ ID NO:30, light chain V SEQ ID NO:31 (antibody, V domains shown)
VH: EVQLLESGGGLVQPGGSLRLSCAASGFSFSSYEMNWVRQAPGKGPEWISYISSGGGTIYYADSVRGRFTISRDNSNNTLYLQMNSLRPDDTAIYYCARDRGRKWLQLLFDSWGQGTLVTVSS
VL: QAVLTQPPSASGTPGQKVTISCSGSSSNIGSNTVNWYQQLPGTAPKLLIYTNNQRPSGVPDRFSGSKSGASASLAISGLQSKDEADYYCAAWDDSLNGWVFGGGTKLTVLG
modifications: Synthetic- Anti-CRR9/CLPTM1L clone 102-5 heavy chain V; Synthetic- Anti-CRR9/CLPTM1L clone 102-5 light chain V
Regarding B1, the tissue toxicity entry in data set [1] is “No tissue toxicity was evident”. For the same molecule, in the data set with MCW-SL3cis cells (102-5 with cisplatin, two-way ANOVA p<0.05), the isobole combination index amounted to 0.65. In addition, the “resistance to cisplatin (spheroid viability, size, number)” value with MCW-SL3cis cells (16 days in culture, treatment from day 4) was “abrogated resistance to cisplatin in a dose-dependent manner”. The “anchorage independent growth, antibody alone” value with MCW-SL3cis cells (MCW-SL3cis and parental MCW-SL3 cells, dose-dependent, ANOVA p<0.0005) was “sufficient to inhibit anchorage independent growth”. The “chemoresistance conferred by conditioned supernatants” value in data set [2] is on record as “abrogated”.
